# Data as given in PubChem BioAssay (NCATS).
# The other results are listed elsewhere or left out. Further columns of the screen follow, without active or inactive calls. The list favours compounds with an active or inconclusive main result. The note in brackets gives the kind of curve behind each potency; many fits are weak.
# Experiment: qHTS Assay for Lipid Storage Modulators (AID 1519)
# Conditions: Drosophila S3 cells, BODIPY lipid droplet/cell ratio, laser cytometry, cells loaded with oleic acid
# Summary of the method: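 Cells seeded at 5,000 per well were treated with compounds over a concentration series and loaded with oleic acid (400 uM, as added). Lipid droplet fluorescence (488 nm excitation, 500-530 nm channel) was read by laser-scanning cytometry and normalized to 20 uM Triacsin C.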
# [1] = measured here: cell count channel max response
# [2] = measured here: cell number channel AC50
# [3] = measured here: lipid (BODIPY) channel AC50
# [4] = measured here: lipid channel max response
# Tags tell the direction and shape of the fitted curve.
Compound,max response [1] [%],AC50 [2],AC50 [3],max response [4] [%]
CCCCCCCCN[C@@H](C)[C@H](O)c1ccc(SC(C)C)cc1,-37,"15.8 µM [falling, single point]","15.8 µM [falling, single point]",-83
COc1ccc(Oc2ncc3nc(-c4cccc(C#N)c4)c(=O)n(CCC#N)c3n2)cc1,-0.505,–,"1.58 µM [rising, partial curve]",-3.48
Nc1ncnc2c1ncn2[C@@H]1O[C@H](CO)[C@H](O)[C@H]1O,28.9,–,"39.8 µM [rising, single point]",30.2
O=c1c(-c2ccccc2)nc2cncnc2n1Cc1ccccc1,18.6,"0.447 µM [rising, full curve, poor fit]",–,26.3
CN(C)C(=O)c1ccc(-c2cncnc2N(C)Cc2ccco2)cc1,40.7,"3.55 µM [rising, partial curve, poor fit]","3.98 µM [rising, partial curve, poor fit]",48.1
COc1ccc(-c2nc3cnc(N(C)C)nc3n(CCc3ccccc3)c2=O)cc1,15.1,"0.224 µM [rising, full curve]","0.178 µM [rising, full curve]",17.5
C#CCCCCCCCCCCCCCCCC(=O)O,62.1,"25.1 µM [rising, partial curve, poor fit]","28.2 µM [rising, partial curve]",82.7
CC(=O)[C@@H]1[C@H]2[C@H](C(=O)[C@H]3OC[C@@H]2O3)[C@H]2C=Cc3ccccc3N21,67.7,"25.1 µM [rising, partial curve]","25.1 µM [rising, partial curve]",89.5
Cc1cnc(CNc2cc(-c3ccc4c(c3)OCO4)ncn2)cn1,36.2,"1 µM [rising, full curve]","0.501 µM [rising, full curve, poor fit]",40.2
COc1cc(/C=C(\C#N)C(N)=O)cc(CSc2nc3ccccc3s2)c1O,33.7,"15.8 µM [rising, partial curve, poor fit]",–,-59.3
Cc1noc(C)c1-c1ccc2ncnc(N3CCC(C(=O)O)CC3)c2c1,29.8,–,"28.2 µM [rising, single point]",35.6
OC[C@@H](O)COc1cccc2ccccc12,30.4,"10 µM [rising, full curve, poor fit]","7.94 µM [rising, full curve, poor fit]",44.2
N[C@H](C(=O)O)[C@@H]1[C@@H](C(=O)O)C1(F)F,40.5,"14.1 µM [rising, full curve, poor fit]","15.8 µM [rising, full curve, poor fit]",53.8
N[C@H](C(=O)O)[C@H](OCc1ccccc1)C(=O)O,70.1,"35.5 µM [rising, partial curve, poor fit]","35.5 µM [rising, partial curve, poor fit]",91.9
Cn1cccc1C(=O)N1CCC[C@@]2(CCN(c3cccc(-c4ccccc4)c3)C2)C1,-7.99,–,"5.01 µM [rising, single point]",-32.9
CC1(C)CC[C@]2(C(=O)O)CC[C@@]3(C)C(=CCC4[C@@]5(C)CCC(O)C(C)(C)C5CC[C@@]43C)C2C1 (stereo partly specified),22.9,–,"39.8 µM [rising, single point]",36.3
O[C@@H]1[C@@H]2c3cc4c(cc3CN3CCC(=C[C@@H]1O)[C@H]23)OCO4,-18.7,–,"10 µM [falling, partial curve, poor fit]",-33.6
COCCn1c(=O)c(-c2ccc(F)cc2)nc2cnc(Oc3ccccc3)nc21,5.18,"1.12 µM [rising, full curve]","0.794 µM [rising, full curve]",2.88
O=C(c1ccco1)N1CCC2(CC1)CN(c1ncccn1)C2,29.4,"3.16 µM [rising, partial curve, poor fit]","4.47 µM [rising, partial curve]",43.2
COc1cccc(Cn2c(=O)c(-c3cc(F)cc(F)c3)nc3cnc(N4CCOCC4)nc32)c1,9.08,–,"0.447 µM [rising, full curve, poor fit]",13.3
CS(=O)(=O)Nc1cccc(-c2cncnc2Nc2ccccc2)c1,32,"2.51 µM [rising, full curve]","2.51 µM [rising, full curve, poor fit]",36.5

Compound,max response [1] [%],AC50 [2],AC50 [3],max response [4] [%]
Cn1c(=O)c(CCc2ccccc2)nc2cnc(Nc3ccccc3)nc21,23.8,–,"1 µM [rising, full curve]",30.5
COc1cccc(Nc2ncc3nc(CCc4ccccc4)c(=O)n(CCC#N)c3n2)c1,-3,"0.01 µM [rising, full curve, poor fit]","0.0891 µM [rising, full curve, poor fit]",0.615
CC(=O)c1c(O)cc(O)cc1O,18.4,–,"22.4 µM [rising, partial curve, poor fit]",31.1
COc1ccc2[nH]cc(CCNc3cc(-c4ccc(C(=O)N(C)C)cc4)ncn3)c2c1,23.8,"0.631 µM [rising, partial curve]","0.316 µM [rising, full curve]",28.1
Cc1cnc(CNc2cc(-c3cccc(C#N)c3)ncn2)cn1,37.5,"1.58 µM [rising, full curve]","1.58 µM [rising, full curve]",43.8
FC(F)(F)c1ccccc1-c1cncnc1NCc1cccs1,18.3,–,"2.24 µM [rising, full curve, poor fit]",23
CS(=O)(=O)Nc1cccc(-c2nc(Nc3ccncc3)c3ccccc3n2)c1,5.66,"0.126 µM [rising, full curve]","0.224 µM [rising, full curve]",6.66
COc1cc2ccc(=O)oc2c(O)c1O,62.6,"31.6 µM [rising, partial curve]","31.6 µM [rising, partial curve, poor fit]",71.7
COc1cccc(Cn2c(=O)c(C)nc3cnc(Oc4cccc(Cl)c4)nc32)c1,30.2,"0.398 µM [rising, full curve, poor fit]","0.1 µM [rising, full curve]",40.9
Cc1nc2cnc(Oc3cccc(Cl)c3)nc2n(C[C@H]2CCCO2)c1=O,-2.05,"4.47 µM [rising, partial curve, poor fit]","1.78 µM [rising, partial curve]",-0.119
COc1ccc(Oc2ncc3nc(-c4ccc(Cl)cc4)c(=O)n(C)c3n2)cc1,23.2,"0.0562 µM [rising, full curve, poor fit]","0.0562 µM [rising, full curve, poor fit]",32.4
CC(N)=NCc1cccc(CN)c1,73.7,"7.08 µM [falling, full curve, poor fit]","7.08 µM [falling, full curve, poor fit]",76.3
COCCn1c(=O)c(CCc2ccccc2)nc2cnc(Nc3ccccc3)nc21,0.111,"1.78 µM [rising, partial curve]","1.78 µM [rising, partial curve]",5.73
CS(=O)(=O)N1CCC2(CCCN(Cc3cc(C(F)(F)F)cc(C(F)(F)F)c3)C2)CC1,16.9,"5.01 µM [rising, single point]","3.98 µM [rising, single point]",-5.41
CN(Cc1ccco1)c1nc(-c2ccccc2C(F)(F)F)nc2ccccc12,37.1,"3.16 µM [rising, full curve, poor fit]","2.82 µM [rising, full curve]",43.1
CC(=O)NCCNc1ncnc2ccc(-c3ccccc3Cl)cc12,11.5,"6.31 µM [rising, single point]","5.62 µM [rising, partial curve, poor fit]",12.4
COc1ccc(CNc2ncncc2-c2cccc(NS(C)(=O)=O)c2)c(OC)c1,43.1,"6.31 µM [rising, partial curve, poor fit]","7.08 µM [rising, partial curve, poor fit]",52.9
NC(=NCCC[C@H](N)C(=O)O)NO,51.6,"2.82 µM [falling, full curve, poor fit]","2.82 µM [falling, full curve, poor fit]",51.2
CN(Cc1ccco1)c1ncncc1-c1ccc2c(c1)OCO2,52.2,"0.891 µM [rising, partial curve]","0.316 µM [rising, full curve]",54.7
NC(=S)c1ccc[n+]([C@@H]2O[C@@H](COP(=O)([O-])OP(=O)(O)OC[C@H]3O[C@@H](n4cnc5c(N)ncnc54)[C@H](OP(=O)(O)O)[C@H]3O)C(O)C2O)c1 (stereo partly specified),28.1,"0.0631 µM [falling, full curve, poor fit]","0.0501 µM [falling, full curve, poor fit]",25.1
COc1cccc(Cn2c(=O)c(-c3cccs3)nc3cnc(OC)nc32)c1,21.7,"0.708 µM [rising, full curve, poor fit]","0.631 µM [rising, full curve, poor fit]",26.7
